# Source: the supplement of paper PMC8728848
# The other results are listed elsewhere or left out.
# B1: Gz-CVNH (Gibberella zeae) (protein)
# chain: MGSSHHHHHHSSGLVPRGSHMGNFHESSNNIWLEDGHILHAECGNGEGDYVESTLDLDYYIGNDDGSFSWGGENFSGSASNITLDIEGDDNIPVLRAELNPMDGDPVEANVNLSERIGNDCGTLIFLA
# Experiments:
# Experiment in all cases: glycan array binding signal (z-score within array); higher = stronger binding
# Conditions in all cases: glycan notation: IUPAC condensed, linker removed
# [1] = target: Gal(b1-4)GlcNAc(b1-3)Gal(b1-4)Glc
# How it was run: (§1)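 Columns mapping to the same glycan were averaged after glycan names were converted to IUPAC-condensed notation. The data come from 3228 arrays in the Consortium for Functional Glycomics database, limited to those with an available protein sequence. Binding is reported as a within-array Z-score averaged across arrays of one protein sequence and across linkers.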
# [2] = target: Gal(b1-4)GlcNAc(b1-3)Gal(b1-4)GlcNAc
# How it was run: as §1
# [3] = target: Gal(b1-4)GlcNAc(b1-3)Gal(b1-4)GlcNAc(b1-3)Gal(b1-4)GlcNAc
# How it was run: as §1
# [4] = target: Gal(b1-4)GlcNAc(b1-3)Gal(b1-4)[Fuc(a1-3)GlcNAc(b1-6)]Gal(b1-4)Glc
# How it was run: as §1
# [5] = target: Gal(b1-4)GlcNAc(b1-3)Gal(b1-4)[Fuc(a1-3)]GlcNAc(b1-3)Gal(b1-4)[Fuc(a1-3)]GlcNAc
# How it was run: as §1
# [6] = target: Gal(b1-4)GlcNAc(b1-3)GalNAc
# How it was run: as §1
# [7] = target: Gal(b1-4)GlcNAc(b1-3)[Gal(b1-4)GlcNAc(b1-6)]Gal(b1-4)GlcNAc
# How it was run: as §1
# [8] = target: Gal(b1-4)GlcNAc(b1-3)[Gal(b1-4)GlcNAc(b1-6)]GalNAc
# How it was run: as §1
# [9] = target: Gal(b1-4)GlcNAc(b1-3)[GlcNAc(b1-6)]Gal(b1-4)GlcNAc
# How it was run: as §1
# [10] = target: Gal(b1-4)GlcNAc(b1-6)Gal(b1-4)GlcNAc
# How it was run: as §1
# [11] = target: Gal(b1-4)GlcNAc(b1-6)GalNAc
# How it was run: as §1
# [12] = target: Gal(b1-4)GlcNAc(b1-6)[Gal(b1-3)]GalNAc
# How it was run: as §1
# Gal(b1-6)Gal = target: Gal(b1-6)Gal
# How it was run: as §1
# Gal3S(b1-3)GalNAc = target: Gal3S(b1-3)GalNAc
# How it was run: as §1
# Gal3S(b1-3)GlcNAc = target: Gal3S(b1-3)GlcNAc
# How it was run: as §1
# [13] = target: Gal3S(b1-3)[Fuc(a1-4)]GlcNAc
# How it was run: as §1
# Gal3S(b1-4)Glc = target: Gal3S(b1-4)Glc
# How it was run: as §1
# Gal3S(b1-4)Glc6S = target: Gal3S(b1-4)Glc6S
# How it was run: as §1
# Gal3S(b1-4)GlcNAc = target: Gal3S(b1-4)GlcNAc
# How it was run: as §1
# Gal3S(b1-4)GlcNAc6S = target: Gal3S(b1-4)GlcNAc6S
# How it was run: as §1
# [14] = target: Gal3S(b1-4)[Fuc(a1-3)]Glc
# How it was run: as §1
# [15] = target: Gal3S(b1-4)[Fuc(a1-3)]Glc6S
# How it was run: as §1
# Gal3S4S(b1-4)GlcNAc = target: Gal3S4S(b1-4)GlcNAc
# How it was run: as §1
# Gal3S6S(b1-4)GlcNAc = target: Gal3S6S(b1-4)GlcNAc
# How it was run: as §1
# Gal3S6S(b1-4)GlcNAc6S = target: Gal3S6S(b1-4)GlcNAc6S
# How it was run: as §1
# Gal4S(b1-4)GlcNAc = target: Gal4S(b1-4)GlcNAc
# How it was run: as §1
# Gal4S6S(b1-4)GlcNAc = target: Gal4S6S(b1-4)GlcNAc
# How it was run: as §1
# Gal6S(b1-3)GlcNAc = target: Gal6S(b1-3)GlcNAc
# How it was run: as §1
# Gal6S(b1-3)GlcNAc6S = target: Gal6S(b1-3)GlcNAc6S
# How it was run: as §1
# Gal6S(b1-4)Glc = target: Gal6S(b1-4)Glc
# How it was run: as §1
# Gal6S(b1-4)Glc6S = target: Gal6S(b1-4)Glc6S
# How it was run: as §1
# Gal6S(b1-4)GlcNAc = target: Gal6S(b1-4)GlcNAc
# How it was run: as §1
# Gal6S(b1-4)GlcNAc6S = target: Gal6S(b1-4)GlcNAc6S
# How it was run: as §1
# GalNAc(a1-3)Gal = target: GalNAc(a1-3)Gal
# How it was run: as §1
# GalNAc(a1-3)GalNAc = target: GalNAc(a1-3)GalNAc
# How it was run: as §1
# [16] = target: GalNAc(a1-3)GalNAc(b1-3)Gal(a1-4)Gal(b1-4)Glc
# How it was run: as §1
# [17] = target: GalNAc(a1-3)GalNAc(b1-3)Gal(a1-4)Gal(b1-4)GlcNAc
# How it was run: as §1
# GalNAc(b1-3)Gal = target: GalNAc(b1-3)Gal
# How it was run: as §1
# [18] = target: GalNAc(b1-3)Gal(a1-4)Gal(b1-4)GlcNAc
# How it was run: as §1
# [19] = target: GalNAc(b1-3)Gal(a1-4)Gal(b1-4)GlcNAc(b1-3)Gal(b1-4)Glc
# How it was run: as §1
# [20] = target: GalNAc(b1-3)Gal(a1-6)Gal(b1-4)Glc
# How it was run: as §1
# GalNAc(b1-3)GalNAc = target: GalNAc(b1-3)GalNAc
# How it was run: as §1
# GalNAc(b1-4)Gal(b1-4)Glc = target: GalNAc(b1-4)Gal(b1-4)Glc
# How it was run: as §1
# GalNAc(b1-4)GlcNAc = target: GalNAc(b1-4)GlcNAc
# How it was run: as §1
# [21] = target: GalNAc(b1-4)GlcNAc(b1-2)Man(a1-3)[GalNAc(b1-4)GlcNAc(b1-2)Man(a1-6)]Man(b1-4)GlcNAc(b1-4)GlcNAc
# How it was run: as §1
binder,measurement,setting,value
B1,glycan array binding signal (z-score),[1],-0.114
same,glycan array binding signal (z-score),[2],-0.127
same,glycan array binding signal (z-score),[3],-0.149
same,glycan array binding signal (z-score),[4],-0.116
same,glycan array binding signal (z-score),[5],-0.14
same,glycan array binding signal (z-score),[6],-0.145
same,glycan array binding signal (z-score),[7],-0.131
same,glycan array binding signal (z-score),[8],-0.116
same,glycan array binding signal (z-score),[9],-0.154
same,glycan array binding signal (z-score),[10],-0.139
same,glycan array binding signal (z-score),[11],-0.125
same,glycan array binding signal (z-score),[12],-0.132
same,glycan array binding signal (z-score),Gal(b1-6)Gal,-0.12
same,glycan array binding signal (z-score),Gal3S(b1-3)GalNAc,-0.165
same,glycan array binding signal (z-score),Gal3S(b1-3)GlcNAc,-0.136
same,glycan array binding signal (z-score),[13],-0.158
same,glycan array binding signal (z-score),Gal3S(b1-4)Glc,-0.107
same,glycan array binding signal (z-score),Gal3S(b1-4)Glc6S,-0.139
same,glycan array binding signal (z-score),Gal3S(b1-4)GlcNAc,-0.166
same,glycan array binding signal (z-score),Gal3S(b1-4)GlcNAc6S,-0.15
same,glycan array binding signal (z-score),[14],-0.09
same,glycan array binding signal (z-score),[15],0.005
same,glycan array binding signal (z-score),Gal3S4S(b1-4)GlcNAc,-0.152
same,glycan array binding signal (z-score),Gal3S6S(b1-4)GlcNAc,-0.145
same,glycan array binding signal (z-score),Gal3S6S(b1-4)GlcNAc6S,-0.164
same,glycan array binding signal (z-score),Gal4S(b1-4)GlcNAc,-0.165
same,glycan array binding signal (z-score),Gal4S6S(b1-4)GlcNAc,-0.126
same,glycan array binding signal (z-score),Gal6S(b1-3)GlcNAc,-0.134
same,glycan array binding signal (z-score),Gal6S(b1-3)GlcNAc6S,-0.077
same,glycan array binding signal (z-score),Gal6S(b1-4)Glc,-0.099
same,glycan array binding signal (z-score),Gal6S(b1-4)Glc6S,-0.139
same,glycan array binding signal (z-score),Gal6S(b1-4)GlcNAc,-0.159
same,glycan array binding signal (z-score),Gal6S(b1-4)GlcNAc6S,-0.111
same,glycan array binding signal (z-score),GalNAc(a1-3)Gal,-0.131
same,glycan array binding signal (z-score),GalNAc(a1-3)GalNAc,-0.151
same,glycan array binding signal (z-score),[16],-0.115
same,glycan array binding signal (z-score),[17],-0.158
same,glycan array binding signal (z-score),GalNAc(b1-3)Gal,-0.146
same,glycan array binding signal (z-score),[18],-0.175
same,glycan array binding signal (z-score),[19],-0.132
same,glycan array binding signal (z-score),[20],-0.12
same,glycan array binding signal (z-score),GalNAc(b1-3)GalNAc,-0.162
same,glycan array binding signal (z-score),GalNAc(b1-4)Gal(b1-4)Glc,-0.141
same,glycan array binding signal (z-score),GalNAc(b1-4)GlcNAc,-0.145
same,glycan array binding signal (z-score),[21],0.031
